This note sets out measurements from article PMC9574860, “Chemical Toolkit for PARK7: Potent, Selective, and High-Throughput” (Journal of Medicinal Chemistry, 2022).

Structures are written as SMILES. Screen size: about 7,900 compounds; about 400 (5.1%) showed an effect of 50% or more. The list shows a part of the results.

Parkinson's disease protein 7 (PARK7/DJ1), sequence (Q99497 whole entry, looked up, the tested form may be a part): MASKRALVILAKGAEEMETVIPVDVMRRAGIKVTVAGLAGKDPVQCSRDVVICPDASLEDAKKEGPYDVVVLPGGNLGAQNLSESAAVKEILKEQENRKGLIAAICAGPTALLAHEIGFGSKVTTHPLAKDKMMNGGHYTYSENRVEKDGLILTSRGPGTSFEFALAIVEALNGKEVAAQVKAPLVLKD

For this assay, the target named is Parkinson's disease protein 7 (PARK7/DJ1) (human, UniProt Q99497). Put plainly: primary screen, percent inhibition; read as competition with a fluorescent probe by fluorescence polarization; higher = more effect of the substance. As to conditions: 100 µM. The gist of the method:
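Fluorescence-polarization probe displacement (JYQ-107, 20 nM final, 2 h) after 2 h preincubation of PARK7 (0.2 μM final) with each fragment at 100 μM final. Read-out ex/em 480/520 nm; remaining activity derived from FP signal loss relative to reference controls.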
Consider `O=C(Nc1ncc(S(=O)(=O)F)s1)c1ccoc1C1CC1`, for which the Inhibition % was 3.65%.

As for `C=CC(=O)N1CC(NC(=O)NC)C1`, the Inhibition % is 20.1%.

For `C=CC(=O)N1CC2CC3CC2C1C3OC` (stereo not shown), the Inhibition % came out at 12.1%.

Regarding `Cc1ccc(NC(=O)CN2CCSC2=O)nc1`, the Inhibition % is listed as 4.53%.

Consider `Cc1cc(C)c(C#N)c(SCC2OCCO2)n1`, for which the Inhibition % was 4.24%.

On to `CN1CCN(CCCCl)C1=O`, for which the Inhibition % turned out to be 3.97%.

Regarding `C=CC(=O)N1CCN(c2cncc3nc(C)nn23)CC1`, the Inhibition % was found to be 6.75%.

Take `O=C1CC(c2ccccc2)=NO1`: the Inhibition % is 18.1%.

Take `CC1(C)OB(c2cnn(-c3ccccc3)c2F)OC1(C)C`: the Inhibition % is 6.42%.

For the compound `O=S(=O)(C=Cc1ccccc1)Nc1ccccc1F`, the Inhibition % is reported as 12.9%.

With `O=c1onc(-c2ccccc2)n1Cc1ccncc1`, the Inhibition % came to 1.3%.

With `CN1C=CC=CC1=C(C#N)C(=O)Nc1ccc(Cl)cc1`, the Inhibition % amounted to 12.9%.

As for `CCCOCc1nc(-c2cccc(B(O)O)c2)no1`, the Inhibition % is reported as 10.1%.

As for `C=CC(=O)NCc1cc(Cl)cc2c1OCC2`, the Inhibition % is given as -1.56%.

As for `Cn1ccc(NS(=O)(=O)C=Cc2ccccc2)n1`, the Inhibition % was found to be 11.1%.

For the compound `CN1CCCN(C(=O)c2ccc(S(=O)(=O)F)cc2)c2ccccc21`, the Inhibition % was found to be 17.9%.

On to `O=C(CCCl)N1CCOCC1`, for which the Inhibition % is given as 5.96%.

Turning to `Cc1noc(C2CCN(Cc3cc(C#N)n(C)c3)C2)n1` (stereo not shown), the Inhibition % is recorded as 6.79%.

Consider `Cc1cccc(OCCn2cnc(C#N)n2)c1`, for which the Inhibition % was 3.5%.

Turning to `O=c1oc(-c2ccc(F)cc2)nn1CC1CCCCO1` (stereo not shown), the Inhibition % is listed as 5.66%.

Regarding `Cc1nc(C#N)c(N2CCN(c3ccccc3)CC2)o1`, the Inhibition % is listed as 8.89%.

Regarding `COc1ccc(C=C(C#N)C(=O)N2CCCC2)c(OC)c1`, the Inhibition % was determined as 10.7%.

`C=CC(=O)NC1CC(=O)N(C2CC2C)C1` (stereo not shown): the Inhibition % worked out at 6.12%.

In the case of `Cl.Cl.O=C1CCC(=O)N1CCN1CCNCC1`, the Inhibition % is recorded as 5.93%.

As for `OB(O)c1cc2cccc(Cl)c2s1`, the Inhibition % is recorded as 16.2%.

Turning to `O=C(NCC1CCOCO1)c1cccnc1S` (stereo not shown), the Inhibition % is 6.16%.

For the compound `O=C(CCl)N1CCN(c2ccc([N+](=O)[O-])cc2)CC1`, the Inhibition % was 7.53%.

For `Cc1c(C#N)nn(-c2ccccc2)c1N`, the Inhibition % is reported as 0.984%.

As to `Sc1nncc2ccccc12`, the Inhibition % amounted to 8.48%.

Consider `C=CC(=O)NC1(C)CN(C(C)=O)C1`, for which the Inhibition % is 10.6%.

For `CC(C)Cc1ccc(C(C)NC(=O)CCl)cc1` (stereo not shown), the Inhibition % came to 9.76%.

For `O=C(Cn1nc(-c2ccccc2)oc1=O)N1CCSCC1`, the Inhibition % is 5.67%.

As for `Cl.O=C(CCl)Nc1ccncc1`, the Inhibition % is 14.4%.

With `CSC1(C(=O)Nc2cccc(S(=O)(=O)F)c2)CC1`, the Inhibition % is given as 101%.

For the compound `N#Cc1ncn(CC(=O)c2cc(F)ccc2F)n1`, the Inhibition % amounted to 9.54%.

With `C=CC(=O)NCCc1cnn(C)c1`, the Inhibition % was 3.91%.

As for `N#Cc1ncn(CC(=O)C23CC4CC(CC(C4)C2)C3)n1`, the Inhibition % stood at 1.82%.

For `CCOc1cc(C=C(C#N)C(=O)NC(C)C)cc(Cl)c1O`, the Inhibition % is 5.09%.

In the case of `C=CC(=O)NCC1CCN(c2ccccc2Cl)C1` (stereo not shown), the Inhibition % was 7.51%.

As to `O=C(CN1CCSC1=O)N1CCCC(C(F)(F)F)C1` (stereo not shown), the Inhibition % is reported as 1.18%.

For the compound `COc1ccccc1-c1csc(CN2C(=O)CCC2=O)n1`, the Inhibition % is on record as 11.5%.

Take `CC(=O)Nc1ccc(OC(=O)N2CCOCC2)cc1`: the Inhibition % stood at 6.01%.

Consider `OB(O)c1ccc(OC2CCOCC2)cc1`, for which the Inhibition % was 3.03%.

Consider `C=CC(=O)Nc1cnn(C2CCOCC2)c1C`, for which the Inhibition % is on record as 8.19%.

For the compound `Cc1ccc(NC(=O)CN2CCSC2=O)cc1C`, the Inhibition % was determined as 1.36%.

As for `C=CCn1c(S)nc2ncccc2c1=O`, the Inhibition % is recorded as 3.48%.

Turning to `N#Cc1cc(N2CCC(Cn3cccn3)CC2)ccn1`, the Inhibition % was determined as 6.57%.

Regarding `CCCOc1cncc(B2OC(C)(C)C(C)(C)O2)c1`, the Inhibition % is given as 5.23%.

For `Cn1cc(C=CC(=O)N2CCC(C(N)=O)CC2)cn1`, the Inhibition % stood at 7.17%.

As for `Cc1ccc2oc(C#N)nc2c1`, the Inhibition % was determined as 9.34%.

In the case of `CCOc1cc(C)ccc1S(=O)(=O)n1cccn1`, the Inhibition % is 0.108%.

Consider `N#Cc1cnc2cnccn12`, for which the Inhibition % came to 19.8%.

With `N#Cc1ncn(CCOc2ccccc2)n1`, the Inhibition % was 0.564%.

For the compound `CC1CC(N2CCOC(Cn3cccn3)C2)C(=O)O1` (stereo not shown), the Inhibition % came out at 3.41%.

Take `O=C1OCCC1N1CCC(c2c[nH]c3ccccc23)CC1` (stereo not shown): the Inhibition % is reported as 2.06%.

Turning to `C#CC(=O)c1ccc(C)cc1`, the Inhibition % is 9.15%.

In the case of `C=CC(=O)Nc1cnc2ccnn2c1`, the Inhibition % is listed as -1.74%.

As to `Cc1ccccc1CC(=O)N1CCCCC1C1OCCO1` (stereo not shown), the Inhibition % amounted to 6.69%.

Take `O=C(CCl)Nc1ccnn1Cc1cccs1`: the Inhibition % is listed as 20.3%.

With `CN(Cc1ccc(F)cc1)C1CCOC1=O` (stereo not shown), the Inhibition % worked out at 3.72%.

Regarding `CN(C)C(=O)OCCn1ccnc1C#N`, the Inhibition % was 4.49%.

On to `N#Cc1cccc(N2CC(O)CC2c2ccccc2)n1` (stereo not shown), for which the Inhibition % is 96.9%.

As to `CCn1ccnc1SC1CC(C)OC1=O` (stereo not shown), the Inhibition % amounted to 7.42%.

On to `O=C(NCCCS(=O)(=O)F)c1cccs1`, for which the Inhibition % is on record as 98.9%.

Take `CC(NC(=O)C(C#N)=Cc1ccco1)c1cccnc1` (stereo not shown): the Inhibition % was determined as 22.8%.

Consider `O=C(O)Cc1ccc(S(=O)(=O)F)cc1`, for which the Inhibition % turned out to be 89.7%.

Regarding `C=CC(=O)NCC(=O)N1CCOCC1`, the Inhibition % was 4.2%.

In the case of `Cn1c(=O)c2[nH]c(SCC3CO3)nc2n(C)c1=O` (stereo not shown), the Inhibition % is listed as 9.31%.

On to `C=CC(=O)NC(c1nc(C2CC2)no1)C(C)C` (stereo not shown), for which the Inhibition % was determined as 11%.

As for `C=CC(=O)NCc1cc(Br)no1`, the Inhibition % is 7.52%.

For the compound `C=CC(=O)N1CCC(OCC)C(C)(C)C1` (stereo not shown), the Inhibition % was determined as 14.7%.

On to `CC(C)(C)NC(=O)CN1CCN(C(=O)CCl)CC1`, for which the Inhibition % came to 13%.

As for `COc1ccc(C)cc1NC(=O)CNC(=O)CCl`, the Inhibition % amounted to 12.3%.

Regarding `Cc1nc(S(=O)(=O)F)sc1C`, the Inhibition % amounted to 34.2%.

As for `COc1ccc(F)cc1S(=O)(=O)n1ccnc1`, the Inhibition % was determined as 6.46%.

With `C=CC(=O)NC1CCCCNC1=O` (stereo not shown), the Inhibition % stood at 3.54%.

Take `CCC(C)NC(=O)Cn1cnc(C#N)n1` (stereo not shown): the Inhibition % worked out at 8.24%.

As for `O=S(=O)(F)[C@@H]1CN(Cc2ccccc2)C[C@H]1c1ccc(Cl)cc1` (racemic), the Inhibition % is reported as 6.55%.

On to `CCOc1cc(C)c(C)cc1S(=O)(=O)n1ccnc1C`, for which the Inhibition % was 2.71%.
